# According to the supplement of paper PMC5499739:
# In all, about 16,000 sequences were measured (“Z-score”: median about -0.37, highest 2% from about 3.1 on). The list shows a part of the results.
# Test system: RBM10 RRM1-ZnF-RRM2 (GST-tagged construct)
# Assay: RNAcompete 7-mer binding Z-score; higher = stronger binding preference
# Method: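 RNAcompete: 20 pmol GST-tagged RBM10 RNA-binding constructs were incubated with a designed RNA pool of about 241,000 sequences up to 41 nt (1.5 nmol) on glutathione beads for 30 min at 4 °C and washed. Bound RNAs were identified by microarray hybridisation. Each RNA 7-mer is scored by a one-sided Z-score of its enrichment, computed over probes that contain the 7-mer within longer pool sequences.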
row,Sequence,RNAcompete 7-mer binding Z-score
1,AAGACAC,-0.311
2,UGGUCUG,0.0532
3,CUCGUCU,-0.741
4,CAUAACU,-0.592
5,UUGAAAU,-0.417
6,UGUGUAA,0.202
7,CGUAAUA,-0.46
8,AGUUUCA,-0.366
9,UGAAUGC,-0.358
10,UAUCACG,-0.435
11,GGAAACA,1.91
12,CUAUCCU,-0.934
13,CUUUGGA,-0.42
14,CCUGCCU,-0.948
15,GUUAUAU,-0.333
16,GGAGCAA,1.93
17,GUGAAGA,0.844
18,UCAUCCA,-0.661
19,CUUGGAC,-0.719
20,AUGCGUA,-0.0379
21,UAUCCAC,-0.635
22,GCGCAAG,-0.0197
23,GAGGACA,1.54
24,UUUGGUC,-0.38

row,Sequence,RNAcompete 7-mer binding Z-score
1,GUUUAAA,-0.42
2,GGCAAAU,0.53
3,UUGUUUC,-0.639
4,CAGUGAU,-0.165
5,CUGAUGU,-0.464
6,GUGGACA,1.79
7,CUGGCGG,0.541
8,UACCAGU,-0.439
9,AGCUUGC,-0.708
10,AGAUAGG,2.87
11,UCAGGAC,0.0277
12,UACCAAC,-0.584
13,UGCGGGA,1.7
14,AGGUGAU,1.62
15,GAAAGUA,0.596
16,GCGGCCC,-0.409
17,GAGUAUU,-0.133
18,UGAAGUC,-0.351
19,GCGCUGU,-0.191
20,UUUGUUU,-0.428
21,CAGUACA,-0.0816
22,CUCCGGG,0.297
23,GUGGAGU,2.86
24,GAACUCA,-0.5

row,Sequence,RNAcompete 7-mer binding Z-score
1,CCUAUGA,-0.785
2,AUAUACA,-0.373
3,GUUCUGU,-0.446
4,CCACACA,-0.668
5,CGCCGCA,-0.675
6,AUACCUA,-0.788
7,AUACGCA,-0.282
8,AUUCCGA,-0.701
9,GCUGGCU,-0.118
10,UUUGGCC,-0.694
11,CAGUUAA,-0.468
12,UACCCAC,-0.672
13,AACAGCA,-0.00512
14,GAGGAUG,2.57
15,CAUGCAA,-0.289
16,UGGCGUU,0.0896
17,CGACGUA,0.0459
18,CGUUAUA,-0.453
19,GAGGGCG,2.81
20,UGACAGA,0.144
21,CCAUUCC,-0.781
22,AUAGCAG,0.465
23,AGAAGAG,1.61
24,CUUACCU,-0.927

row,Sequence,RNAcompete 7-mer binding Z-score
1,UGAUGCG,0.414
2,GUGAUUC,-0.176
3,ACGUCAG,-0.329
4,GUGUUAA,0.141
5,CCCUGGA,-0.326
6,GGCACGA,0.505
7,AGUUCCC,-0.595
8,UCAUCCC,-0.806
9,CAAUCAG,0.00944
10,CGGAUGA,0.887
11,ACCUUAU,-0.981
12,CCGGCUU,-0.879
13,CGAUCAC,-0.657
14,UAAUUGU,-0.624
15,UGAAUCU,-0.57
16,ACGAUUG,-0.0889
17,CGUAGAA,0.181
18,UGUGCUU,-0.719
19,CCGGCUG,-0.468
20,GCAACUG,-0.213
21,GCGUAAC,-0.144
22,GAUAUCC,-0.573
23,ACGUAGC,-0.0561
24,AUUACAA,-0.3

row,Sequence,RNAcompete 7-mer binding Z-score
1,AUUCCUG,-0.832
2,UGUCUCC,-0.836
3,CAUGCUC,-0.77
4,UGUAGCC,-0.624
5,GAAAAGC,0.268
6,CCAAAAC,-0.719
7,GUGCUCG,-0.18
8,ACUCAAC,-0.741
9,UUGAAUC,-0.562
10,UAGGUUU,0.876
11,AAUACAG,0.388
12,UGAGCAA,0.206
13,UCGCGAC,-0.723
14,UUGGACU,-0.249
15,GUACAAG,0.654
16,ACAGCCU,-0.708
17,AAAUUAA,-0.541
18,UAGUUAU,-0.464
19,UCUAAAU,-0.741
20,CUGUACC,-0.726
21,CCGACCU,-0.963
